{
  "source": "paper PMC4336329",
  "about": "(PLoS ONE, 2015)",
  "note": "Hit rate of the full screen: of about 310,000 compounds, about 2,200 (0.71%) showed an effect of 50% or more. The effect is printed as a negative number. The list shows a part of the results.",
  "data": [
    {"biological_target": "human ether-à-go-go-related gene (hERG) potassium channel (human, UniProt Q12809)", "sequence (Q12809 whole entry, looked up)": "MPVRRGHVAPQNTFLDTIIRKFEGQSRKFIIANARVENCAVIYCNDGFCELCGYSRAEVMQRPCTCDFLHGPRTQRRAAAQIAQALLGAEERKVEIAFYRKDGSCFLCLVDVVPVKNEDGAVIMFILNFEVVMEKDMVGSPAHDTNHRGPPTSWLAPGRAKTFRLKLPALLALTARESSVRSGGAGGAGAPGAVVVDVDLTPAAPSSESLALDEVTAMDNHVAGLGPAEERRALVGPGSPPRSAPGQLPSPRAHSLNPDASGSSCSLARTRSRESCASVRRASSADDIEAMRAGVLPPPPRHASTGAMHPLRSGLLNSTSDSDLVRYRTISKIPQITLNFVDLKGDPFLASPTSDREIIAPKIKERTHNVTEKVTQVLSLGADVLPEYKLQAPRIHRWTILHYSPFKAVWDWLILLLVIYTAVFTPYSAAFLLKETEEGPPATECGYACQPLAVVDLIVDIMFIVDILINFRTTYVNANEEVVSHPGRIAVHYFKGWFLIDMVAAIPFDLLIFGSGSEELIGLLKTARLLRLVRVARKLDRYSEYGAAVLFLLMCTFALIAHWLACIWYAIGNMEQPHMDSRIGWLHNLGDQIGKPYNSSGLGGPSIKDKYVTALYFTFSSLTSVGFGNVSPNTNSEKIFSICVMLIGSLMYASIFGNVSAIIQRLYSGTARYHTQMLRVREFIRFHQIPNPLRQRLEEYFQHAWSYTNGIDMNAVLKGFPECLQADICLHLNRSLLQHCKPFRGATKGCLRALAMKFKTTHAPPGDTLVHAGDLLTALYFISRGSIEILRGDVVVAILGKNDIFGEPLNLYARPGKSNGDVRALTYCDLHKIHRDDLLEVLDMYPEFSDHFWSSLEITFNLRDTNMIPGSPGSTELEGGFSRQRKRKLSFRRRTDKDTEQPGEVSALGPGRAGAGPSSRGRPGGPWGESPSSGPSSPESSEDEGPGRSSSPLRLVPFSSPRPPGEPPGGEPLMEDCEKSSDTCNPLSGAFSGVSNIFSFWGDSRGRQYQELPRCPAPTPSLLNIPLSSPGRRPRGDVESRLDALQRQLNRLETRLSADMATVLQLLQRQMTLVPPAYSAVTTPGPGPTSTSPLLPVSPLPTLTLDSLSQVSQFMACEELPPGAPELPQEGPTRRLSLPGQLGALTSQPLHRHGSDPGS", "assay": "primary screen, population patch clamp on CHO cells stably expressing hERG", "units": {"hERG current change (%, negative = inhibition) at 1uM": "%"}, "values": [
      {"smiles": "CCCn1c(SCC(=O)c2ccc3c(c2)OCCO3)n[nH]c1=O", "hERG current change (%, negative = inhibition) at 1uM": 15.7},
      {"smiles": "CCN(C(=O)c1ccc2c(Cl)c3c(nc2c1)CCC3)c1ccc(C)c(C)c1", "hERG current change (%, negative = inhibition) at 1uM": 15.1},
      {"smiles": "C=CCSc1nnc(-c2ccccc2N=Cc2c(C)[nH]n(-c3ccccc3)c2=O)c(=O)[nH]1", "hERG current change (%, negative = inhibition) at 1uM": 4.33},
      {"smiles": "CCOC(=O)NCc1ccc2c(c1)OCO2", "hERG current change (%, negative = inhibition) at 1uM": 15.6},
      {"smiles": "CCCn1c(CCNc2nc(-c3ccc(Cl)c([N+](=O)[O-])c3)cs2)nc2cc(Cl)c(Cl)cc21", "hERG current change (%, negative = inhibition) at 1uM": -21.7},
      {"smiles": "c1ccc2c(CNC3CCCCCC3)c[nH]c2c1", "hERG current change (%, negative = inhibition) at 1uM": -3.42},
      {"smiles": "O=C1CC(NS(=O)(=O)c2cccnc2)CN1c1ccc(Cl)cc1", "note": "(centres unmarked)", "hERG current change (%, negative = inhibition) at 1uM": 4.07},
      {"smiles": "COc1ccc(C)cc1S(=O)(=O)NCc1cccs1", "hERG current change (%, negative = inhibition) at 1uM": -2.26},
      {"smiles": "S=C(c1ccc(-c2cc(Cl)ccc2Cl)o1)N1CCCCC1", "hERG current change (%, negative = inhibition) at 1uM": 5.21},
      {"smiles": "CCC(=O)NCc1ccc2[nH]c(C)cc2c1", "hERG current change (%, negative = inhibition) at 1uM": 24.9},
      {"smiles": "COCCNC(=O)c1ccccc1NC(=O)c1ccccc1N(C)S(=O)(=O)c1ccccc1", "hERG current change (%, negative = inhibition) at 1uM": 11.4},
      {"smiles": "COCCCNc1nc(CC(C)C)nc2c1nnn2Cc1ccccc1", "hERG current change (%, negative = inhibition) at 1uM": 8.31},
      {"smiles": "COc1ccc(C2NCc3ccccc3-n3cccc32)cc1.Cl", "note": "(centres unmarked)", "hERG current change (%, negative = inhibition) at 1uM": 6.07},
      {"smiles": "CC1(C)C(=O)Nc2ccccc2N1C(=O)COC(=O)c1cccnc1", "hERG current change (%, negative = inhibition) at 1uM": 8.14},
      {"smiles": "C=CCNC(=S)NNC(=O)c1ccc(C)c(Cl)c1", "hERG current change (%, negative = inhibition) at 1uM": 33.6},
      {"smiles": "CCc1ccc(N2C(=O)C3NN=C(C(=O)OCc4ccccc4)C3C2=O)cc1", "note": "(centres unmarked)", "hERG current change (%, negative = inhibition) at 1uM": 5.43},
      {"smiles": "CN1C(=S)SC(C)(NO)C1(C)C", "note": "(centres unmarked)", "hERG current change (%, negative = inhibition) at 1uM": 21.6},
      {"smiles": "COc1cc(C(=O)OCC(=O)NCC2CCCCC2)ccc1OCC(C)C", "hERG current change (%, negative = inhibition) at 1uM": 3.08},
      {"smiles": "CCOC(=O)c1c(C)nc(SCC(N)=O)c(C#N)c1-c1ccccc1", "hERG current change (%, negative = inhibition) at 1uM": 17.4},
      {"smiles": "CCCCC1=CC2=CC(=O)C(C)(OC(=O)CC)C(=O)C2=CN1Cc1ccccc1", "note": "(centres unmarked)", "hERG current change (%, negative = inhibition) at 1uM": -12.6},
      {"smiles": "O=C(Nc1ncccc1O)c1ccc(C(=O)c2ccccc2)cc1", "hERG current change (%, negative = inhibition) at 1uM": 0.367},
      {"smiles": "O=C(COc1ccc(Br)cc1)Nc1nc(-c2cccnc2)cs1", "hERG current change (%, negative = inhibition) at 1uM": 7.66},
      {"smiles": "O=C(CN1C(=O)c2cccc3cccc1c23)NCC1CCCO1", "note": "(centres unmarked)", "hERG current change (%, negative = inhibition) at 1uM": 4.84},
      {"smiles": "O=C(C1CCCCN1S(=O)(=O)c1ccccc1)N1CCN(C(c2ccccc2)c2ccccc2)CC1", "note": "(centres unmarked)", "hERG current change (%, negative = inhibition) at 1uM": -2.69},
      {"smiles": "CCc1ccccc1NC(=O)CN(C)C(=O)CN1C(=O)NC2(CCCCCC2)C1=O", "hERG current change (%, negative = inhibition) at 1uM": -1.28},
      {"smiles": "C=C(C)CN(CC)C(=O)c1ccc(OC2CCN(S(=O)(=O)N(C)C)CC2)cc1", "hERG current change (%, negative = inhibition) at 1uM": 9.36},
      {"smiles": "Brc1ccc(-c2nnc3sc(CNCc4ccc5c(c4)OCO5)cn23)cc1", "hERG current change (%, negative = inhibition) at 1uM": 1.45},
      {"smiles": "Nc1cc(N)nc(SCC(=O)N2CCN(S(=O)(=O)c3ccccc3)CC2)n1", "hERG current change (%, negative = inhibition) at 1uM": 3.24},
      {"smiles": "CCOC(=O)c1cnc(-n2nc(C)cc2C)nc1NNc1ncc(-c2ccccc2)cn1", "hERG current change (%, negative = inhibition) at 1uM": -5.49},
      {"smiles": "COCCC1CCCCN1C(=O)c1ccc(OC2CCN(C(C)=O)CC2)c(OC)c1", "note": "(centres unmarked)", "hERG current change (%, negative = inhibition) at 1uM": 11.1},
      {"smiles": "CC(C)Sc1nnc(SCC(=O)N(C)C2CCS(=O)(=O)C2)s1", "note": "(centres unmarked)", "hERG current change (%, negative = inhibition) at 1uM": 9.04},
      {"smiles": "CCCn1c(N)c(C(=O)CSc2nnc3n2CCCCC3)c(=O)n(C)c1=O", "hERG current change (%, negative = inhibition) at 1uM": 10.9},
      {"smiles": "CCOc1ccc(N=C2NC(=O)CS2)cc1", "hERG current change (%, negative = inhibition) at 1uM": 11.1},
      {"smiles": "COc1cc(C(=O)NCC(C)(C)CNC(=O)c2cc(OC)c(OC)c(OC)c2)cc(OC)c1OC", "hERG current change (%, negative = inhibition) at 1uM": 15.5},
      {"smiles": "COc1ccc(C(=O)C[n+]2ccccc2/C=N/O)cc1.[Br-]", "hERG current change (%, negative = inhibition) at 1uM": 13.6},
      {"smiles": "COc1ccc2[nH]c(O)c(N=NC(=O)Cc3cccs3)c2c1", "hERG current change (%, negative = inhibition) at 1uM": 5.53},
      {"smiles": "COc1ccc(OC)c(NC(=O)CCNC(=O)Cn2ccc3ccccc3c2=O)c1", "hERG current change (%, negative = inhibition) at 1uM": 12.5},
      {"smiles": "O=C(O)CCCCCNC(=O)Cn1nnc2ccccc2c1=O", "hERG current change (%, negative = inhibition) at 1uM": 11.6},
      {"smiles": "O=C(c1ccccc1-c1nc(-c2ccc(Cl)cc2)no1)N1CCCC1", "hERG current change (%, negative = inhibition) at 1uM": 10.1},
      {"smiles": "Cc1ccccc1NC(=S)N/N=C/C(C)c1ccccc1", "note": "(centres unmarked)", "hERG current change (%, negative = inhibition) at 1uM": 9.03},
      {"smiles": "c1ccc2sc(-c3ccc4c(c3)OCO4)nc2c1", "hERG current change (%, negative = inhibition) at 1uM": 4.67},
      {"smiles": "O=C(COc1ccc2c(-c3ccccc3)cc(=O)oc2c1)NCCN1CCOCC1", "hERG current change (%, negative = inhibition) at 1uM": 2.3},
      {"smiles": "O=C(CC(=O)c1ccccc1)Nc1ccccc1", "hERG current change (%, negative = inhibition) at 1uM": 7.17},
      {"smiles": "Cc1cc(SCC(=O)c2ccc(O)c(O)c2)nc2ccccc12", "hERG current change (%, negative = inhibition) at 1uM": 6.8},
      {"smiles": "CC(C)(C)NC(=O)c1ccc(Sc2ccccc2)c([N+](=O)[O-])c1", "hERG current change (%, negative = inhibition) at 1uM": -2.57},
      {"smiles": "O=C(Cc1ccc(-n2cccc2)cc1)NCc1ccccc1Cl", "hERG current change (%, negative = inhibition) at 1uM": 7.19},
      {"smiles": "CCOC(=O)N1CCc2c(sc(NC(=O)CN3CCOCC3)c2C#N)C1", "hERG current change (%, negative = inhibition) at 1uM": 8.66},
      {"smiles": "CC1(OC(=O)C2CCCC2)C(=O)C=C2C=C(c3ccsc3)N(Cc3ccc4c(c3)OCO4)C=C2C1=O", "note": "(centres unmarked)", "hERG current change (%, negative = inhibition) at 1uM": -4.99},
      {"smiles": "Cc1c(C(c2ccc(O)cc2)c2c(C)n(C)n(-c3ccccc3)c2=O)c(=O)n(-c2ccccc2)n1C", "hERG current change (%, negative = inhibition) at 1uM": 19.9},
      {"smiles": "Cc1ccc(C)c(OCc2ccc(C(=O)Nc3ccc([N+](=O)[O-])cn3)o2)c1", "hERG current change (%, negative = inhibition) at 1uM": 16.5},
      {"smiles": "O=C(Cn1cnc2c(nnn2Cc2ccc(F)cc2)c1=O)N1CCCc2ccccc21", "hERG current change (%, negative = inhibition) at 1uM": 8.32},
      {"smiles": "O=C(CCNS(=O)(=O)c1cccc2nsnc12)NCc1ccccc1Cl", "hERG current change (%, negative = inhibition) at 1uM": 11},
      {"smiles": "CN1CCN(C(=O)C2=C[C@H](c3csc4ccccc34)C[C@H](OCCCCO)O2)CC1", "hERG current change (%, negative = inhibition) at 1uM": 6.38},
      {"smiles": "Cc1cccc(C(=O)NC(=S)NCc2cccnc2)c1", "hERG current change (%, negative = inhibition) at 1uM": 5.34},
      {"smiles": "CCN1CCN(c2nc(Nc3ccc(C)c(C)c3)nc(N)c2[N+](=O)[O-])CC1", "hERG current change (%, negative = inhibition) at 1uM": -26.5},
      {"smiles": "Cc1cc(NC(=O)c2cccc(S(=O)(=O)N3CCCCCC3)c2)n(-c2ccccn2)n1", "hERG current change (%, negative = inhibition) at 1uM": 16.7}
    ]}
  ]
}
